Source: patent publication US10988445B2 (AstraZeneca AB, priority 2015, dated 2021)

Molecular target: RORγ ligand binding domain (Homo sapiens (Human), UniProt P51449)
Assay: RORγ co-factor recruitment assay (FRET), SRC-1 peptide recruitment
Format: biochemical
Conditions: inhibition of SRC-1 (NCOA1_677-700) peptide recruitment to hRORγ LBD

Sequence of UniProt P51449 (P51449 whole entry, looked up): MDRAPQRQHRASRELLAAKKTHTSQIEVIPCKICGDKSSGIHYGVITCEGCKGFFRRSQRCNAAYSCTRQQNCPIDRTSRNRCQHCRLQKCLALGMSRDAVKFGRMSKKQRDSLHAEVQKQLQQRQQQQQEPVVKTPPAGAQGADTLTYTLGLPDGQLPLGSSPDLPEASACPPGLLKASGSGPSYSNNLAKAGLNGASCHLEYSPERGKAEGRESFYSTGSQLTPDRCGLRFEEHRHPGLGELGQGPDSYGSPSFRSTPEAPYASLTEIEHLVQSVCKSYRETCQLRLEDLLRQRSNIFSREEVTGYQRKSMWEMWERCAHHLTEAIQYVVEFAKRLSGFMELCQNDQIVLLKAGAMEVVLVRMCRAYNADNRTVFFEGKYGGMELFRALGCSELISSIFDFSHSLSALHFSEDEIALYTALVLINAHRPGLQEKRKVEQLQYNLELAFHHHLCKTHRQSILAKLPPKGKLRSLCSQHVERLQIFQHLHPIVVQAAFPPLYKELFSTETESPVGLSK

Structure (SMILES): COC1(C(=O)N2Cc3cc(S(C)(=O)=O)ccc3C2C(=O)Nc2ccc(C(O)(C(F)(F)F)C(F)(F)F)cc2)CCC1 (stereo not shown) [Example 448, N-[4-(1,1,1,3,3,3-Hexafluoro-2-hydroxypropan-2-yl)phenyl]-2-[(1-methoxycyclobutyl)carbonyl]-5-(methylsulfonyl)-2,3-dihydro-1H-isoindole-1-carboxamide]
- pIC50 (FRET): 6.1
